Results published in the supplement of paper PMC3334620.
Over roughly 33,000 sequences, “E-score (-0.5 to 0.5)” has its median near -0.01; the highest 2% begin near 0.26. The list shows a part of the results.

molecular target: Ste12 (UniProt P13574); assay: PBM E-score (8-mer binding enrichment) (E-score (-0.5 to 0.5)); higher = stronger / more preferred TF binding; most listed sequences are background and not binding sites; conditions: protein concentration: 200 nM; construct: GST-DNA-binding domain
In short: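 E-scores (a modified Wilcoxon-Mann-Whitney statistic) were assigned by the Universal PBM Analysis Suite to every ungapped eight-base word pooled with its reverse complement. The input came from universal all-10-mer Agilent arrays made double-stranded by primer extension and probed with GST-tagged yeast transcription factors at about 100-200 nM. Fluorescent anti-GST detected bound protein, and masliner normalised the scans.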

Question: TGCCTGAA was tested. Which “PBM E-score” value did it give?
Answer: -0.0642

Question: With AATCTCCG as the sequence, how does the “PBM E-score” value read?
Answer: -0.0853

Question: ATAAACCA was tested. Which “PBM E-score” value did it give?
Answer: 0.128

Question: With ATCGCCTC as the sequence, how does the “PBM E-score” value read?
Answer: 0.038

Question: For ACTGCCGG, which “PBM E-score” value is on record?
Answer: -0.00377

Question: For AAAGTATC, which “PBM E-score” value is on record?
Answer: 0.0864

Question: AGCATTAC was tested. Which “PBM E-score” value did it give?
Answer: -0.087

Question: With GGGATGAA as the sequence, how does the “PBM E-score” value read?
Answer: -0.0298

Question: AAAACTTC was tested. Which “PBM E-score” value did it give?
Answer: 0.0623

Question: AGTGCTTC was tested. Which “PBM E-score” value did it give?
Answer: -0.0683

Question: How did the “PBM E-score” value turn out when GAAGGTGA was run?
Answer: -0.00036

Question: With ACTACTGA as the sequence, how does the “PBM E-score” value read?
Answer: -0.132

Question: AGCATGAT was tested. Which “PBM E-score” value did it give?
Answer: 0.0231

Question: With GGGATCCC as the sequence, how does the “PBM E-score” value read?
Answer: -0.0609

Question: How did the “PBM E-score” value turn out when CAGTCTCA was run?
Answer: 0.0426

Question: Which “PBM E-score” value does the source give for ATGCCAGC here?
Answer: -0.22

Question: How did the “PBM E-score” value turn out when AGGGCACA was run?
Answer: -0.146

Question: With GATCCTCA as the sequence, how does the “PBM E-score” value read?
Answer: -0.0335

Question: Which “PBM E-score” value does the source give for ATGGACGC here?
Answer: -0.0759

Question: For AGACGTAG, which “PBM E-score” value is on record?
Answer: -0.222

Question: How did the “PBM E-score” value turn out when AGTAACAT was run?
Answer: 0.0975

Question: AAGGCCGA was tested. Which “PBM E-score” value did it give?
Answer: -0.0307

Question: Which “PBM E-score” value does the source give for ACCTACGC here?
Answer: -0.0219

Question: For CGGCCTCC, which “PBM E-score” value is on record?
Answer: 0.0559

Question: How did the “PBM E-score” value turn out when GAATAGGC was run?
Answer: -0.0142

Question: How did the “PBM E-score” value turn out when AAACGATC was run?
Answer: 0.0755

Question: With AGCTGACC as the sequence, how does the “PBM E-score” value read?
Answer: -0.00439

Question: For CGCGAACG, which “PBM E-score” value is on record?
Answer: -0.082

Question: For ACCTCCCC, which “PBM E-score” value is on record?
Answer: 0.161

Question: For CCCGCCCG, which “PBM E-score” value is on record?
Answer: 0.233

Question: ATACCTCC was tested. Which “PBM E-score” value did it give?
Answer: -0.0155

Question: Which “PBM E-score” value does the source give for ACGCTCCA here?
Answer: -0.0922

Question: Which “PBM E-score” value does the source give for GCGGTAAA here?
Answer: 0.134

Question: How did the “PBM E-score” value turn out when TCATACCA was run?
Answer: -0.0469

Question: Which “PBM E-score” value does the source give for ACAGGATA here?
Answer: 0.0107

Question: Which “PBM E-score” value does the source give for TCTCCGAA here?
Answer: -0.101

Question: With AACATACC as the sequence, how does the “PBM E-score” value read?
Answer: 0.0852

Question: For AGATTGAA, which “PBM E-score” value is on record?
Answer: 0.101

Question: With CAGACTTA as the sequence, how does the “PBM E-score” value read?
Answer: -0.224

Question: CGCGGTAG was tested. Which “PBM E-score” value did it give?
Answer: 0.0609

Question: GCTACAGA was tested. Which “PBM E-score” value did it give?
Answer: -0.199

Question: With CCTGACCA as the sequence, how does the “PBM E-score” value read?
Answer: 0.0373

Question: With GATATCAA as the sequence, how does the “PBM E-score” value read?
Answer: 0.129

Question: Which “PBM E-score” value does the source give for GAACTGCA here?
Answer: 0.00164

Question: With TGTGGCAA as the sequence, how does the “PBM E-score” value read?
Answer: 0.0182

Question: GACTCCAA was tested. Which “PBM E-score” value did it give?
Answer: -0.141

Question: With CAAGACTA as the sequence, how does the “PBM E-score” value read?
Answer: 0.0335

Question: Which “PBM E-score” value does the source give for CATGGGAG here?
Answer: 0.122

Question: For GCGACAAA, which “PBM E-score” value is on record?
Answer: 0.114

Question: How did the “PBM E-score” value turn out when ACACTGAA was run?
Answer: 0.184

Question: With ATCTCAAA as the sequence, how does the “PBM E-score” value read?
Answer: 0.27

Question: Which “PBM E-score” value does the source give for GCATACCC here?
Answer: 0.0634

Question: How did the “PBM E-score” value turn out when CTCTGCCA was run?
Answer: -0.0982

Question: Which “PBM E-score” value does the source give for CTCGGACA here?
Answer: 0.00957

Question: Which “PBM E-score” value does the source give for CCTAACTC here?
Answer: -0.0205

Question: CAAACGTC was tested. Which “PBM E-score” value did it give?
Answer: 0.0704

Question: With GCTCGTTA as the sequence, how does the “PBM E-score” value read?
Answer: -0.122

Question: Which “PBM E-score” value does the source give for ATAACAAC here?
Answer: 0.141

Question: ATATTAAC was tested. Which “PBM E-score” value did it give?
Answer: 0.285

Question: CCACAATA was tested. Which “PBM E-score” value did it give?
Answer: 0.132

Question: How did the “PBM E-score” value turn out when CTAATTGA was run?
Answer: 0.114

Question: For CGTAGGCA, which “PBM E-score” value is on record?
Answer: -0.226

Question: For AATGGCTC, which “PBM E-score” value is on record?
Answer: 0.0653

Question: GCAATCGC was tested. Which “PBM E-score” value did it give?
Answer: -0.128

Question: ATTGTCTA was tested. Which “PBM E-score” value did it give?
Answer: 0.0212

Question: With ATCTGATA as the sequence, how does the “PBM E-score” value read?
Answer: 0.114

Question: For ATTCACCA, which “PBM E-score” value is on record?
Answer: 0.00077

Question: CTTGTACA was tested. Which “PBM E-score” value did it give?
Answer: 0.0503

Question: With CTACACCA as the sequence, how does the “PBM E-score” value read?
Answer: 0.0459

Question: How did the “PBM E-score” value turn out when AAACGAGC was run?
Answer: 0.175

Question: How did the “PBM E-score” value turn out when ACACGTCT was run?
Answer: -0.185

Question: How did the “PBM E-score” value turn out when CCAACATC was run?
Answer: 0.0236

Question: Which “PBM E-score” value does the source give for ACATGGTC here?
Answer: 0.109

Question: For CCTGAGCC, which “PBM E-score” value is on record?
Answer: -0.0591

Question: How did the “PBM E-score” value turn out when AAACCGCT was run?
Answer: -0.0607

Question: How did the “PBM E-score” value turn out when TCTTGGCA was run?
Answer: 0.0241

Question: How did the “PBM E-score” value turn out when AATCTAAG was run?
Answer: 0.0747

Question: Which “PBM E-score” value does the source give for AGTTTAAT here?
Answer: 0.238

Question: Which “PBM E-score” value does the source give for CCAAGCTA here?
Answer: -0.104

Question: AAATAGAG was tested. Which “PBM E-score” value did it give?
Answer: 0.0914

Question: How did the “PBM E-score” value turn out when CGGGAACA was run?
Answer: 0.0209

Question: Which “PBM E-score” value does the source give for GAAGAGTA here?
Answer: -0.00644

Question: How did the “PBM E-score” value turn out when AACGACAG was run?
Answer: 0.0325

Question: For GACGCCAA, which “PBM E-score” value is on record?
Answer: 0.0781

Question: How did the “PBM E-score” value turn out when GGGCAAAC was run?
Answer: 0.0104

Question: Which “PBM E-score” value does the source give for TAGCCGGA here?
Answer: 0.0132

Question: With CCCAGAAA as the sequence, how does the “PBM E-score” value read?
Answer: 0.103

Question: With ACCAAGCC as the sequence, how does the “PBM E-score” value read?
Answer: -0.114

Question: AGTTGTGG was tested. Which “PBM E-score” value did it give?
Answer: 0.0605

Question: With AAGGCTAC as the sequence, how does the “PBM E-score” value read?
Answer: -0.0373

Question: For ACGTGTGG, which “PBM E-score” value is on record?
Answer: -0.047

Question: Which “PBM E-score” value does the source give for CTCGGCAC here?
Answer: -0.00063

Question: For CGTTCTGC, which “PBM E-score” value is on record?
Answer: -0.0359

Question: Which “PBM E-score” value does the source give for GATGCGAA here?
Answer: -0.0468

Question: Which “PBM E-score” value does the source give for ATGTATCC here?
Answer: 0.0246

Question: With ATTGGAAG as the sequence, how does the “PBM E-score” value read?
Answer: 0.0324

Question: For GCACAATA, which “PBM E-score” value is on record?
Answer: -0.0437

Question: ACCCTGCC was tested. Which “PBM E-score” value did it give?
Answer: -0.0193

Question: GGCTCGCA was tested. Which “PBM E-score” value did it give?
Answer: -0.137

Question: With ACAAATCT as the sequence, how does the “PBM E-score” value read?
Answer: 0.147

Question: For ATACCATG, which “PBM E-score” value is on record?
Answer: -0.029

Question: With AGGAATAA as the sequence, how does the “PBM E-score” value read?
Answer: -0.0181

Question: With ACCTAAGA as the sequence, how does the “PBM E-score” value read?
Answer: 0.0806

Question: For CCGATTTA, which “PBM E-score” value is on record?
Answer: 0.199

Question: With CGCCTGGC as the sequence, how does the “PBM E-score” value read?
Answer: -0.11

Question: ACAAGACG was tested. Which “PBM E-score” value did it give?
Answer: -0.132

Question: For CATCCGTA, which “PBM E-score” value is on record?
Answer: 0.0512

Question: For GAGCACCA, which “PBM E-score” value is on record?
Answer: -0.0761

Question: For CACACGTG, which “PBM E-score” value is on record?
Answer: 0.0372

Question: For CCGCCAAG, which “PBM E-score” value is on record?
Answer: -0.133
